# In PubChem BioAssay AID1745853 (National Center for Advancing Translational Sciences (NCATS), 2022):
# The other results are listed elsewhere or left out. These are further read-outs of the screen, such as a control signal, another cell line or another target. No call is given for them.
# Legend:
# Assay in all cases: Primary Screen for Target Class Profiling of Small Molecule Inhibitors of Methyltransferases
# [1] = molecular target: Glycine N-methyltransferase (Homo sapiens) (UniProt Q14749); conditions: purified enzyme, MTase-Glo SAH luminescence; measured here: GNMT inhibition; at 40 µM; stronger effect = lower value
# Method in brief: (§1)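 Each enzyme was assayed with SAM and its substrate. SAH formation detected by MTase-Glo luminescence; single-point 40 uM screen[…].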
# [2] = molecular target: Guanidinoacetate N-methyltransferase (Homo sapiens) (UniProt Q14353); conditions: purified enzyme, MTase-Glo SAH luminescence; measured here: GAMT inhibition; at 40 µM; stronger effect = lower value
# Method in brief: as §1
# [3] = molecular target: Histamine N-methyltransferase (Homo sapiens) (UniProt P50135); conditions: purified enzyme, MTase-Glo SAH luminescence; measured here: HNMT inhibition; at 40 µM; stronger effect = lower value
# Method in brief: as §1
# [4] = molecular target: Nicotinamide N-methyltransferase (Homo sapiens) (UniProt P40261); conditions: purified enzyme, MTase-Glo SAH luminescence; measured here: NNMT inhibition; at 40 µM; stronger effect = lower value
# Method in brief: as §1
# [5] = molecular target: Phenylethanolamine N-methyltransferase (Homo sapiens) (UniProt P11086); conditions: purified enzyme, MTase-Glo SAH luminescence; measured here: PNMT inhibition; at 40 µM; stronger effect = lower value
# Method in brief: as §1
# % is set by controls: 0 for no effect and ±100 for the full control effect.
SMILES,"activity change, negative = inhibition [1] [%]","activity change, negative = inhibition [2] [%]","activity change, negative = inhibition [3] [%]","activity change, negative = inhibition [4] [%]","activity change, negative = inhibition [5] [%]"
COc1ccc(Cl)cc1N1C(=O)CSc2c(c3ccccc3n2C)C1C(=O)NCc1ccccc1 (stereo not given),4.55,0,10.5,5.59,5.68
CC1(C(=O)NC2CCCCC2)Cn2c(ccc2-c2ccco2)C(=O)N1CCc1ccccc1Cl (stereo not given),-18.1,4.75,-13.8,-16.6,-3.58
COc1c(O)cc2c(c1O)[C@@H]1O[C@H](CO)[C@@H](O)[C@H](O)[C@H]1OC2=O,-2.78,-0.371,4.75,-11.5,-7.87
O=C(O)c1ccnc(-c2cc(C(=O)NCCc3ccccc3)ccn2)c1,-5.95,-0.415,-3.72,-19.3,-12.3
COc1ccc(C(=O)NC[C@@H]2CC[C@H]3C[C@@H]2C3(C)C)cc1,-3.63,-3.29,0.495,-21.4,-6.46
OC[C@@H]1CNC[C@H]1c1nc(-c2ccncc2)no1,-2.97,-2.22,-0.68,-4.12,-2.88
CCCCC(F)(F)[C@@]1(O)CC[C@H]2[C@H](CC(=O)[C@@H]2CCCCCCC(=O)O)O1,-0.347,4.62,10.4,-9.38,4.93
Cc1ccc(Cl)cc1N1CCN(C(=O)CCc2nnc3n(C)c(=O)c4ccccc4n23)CC1,-3.25,0,6.01,4.27,-3.06
Nc1cccc(-c2cc3c(Oc4cccc(O)c4)ncnc3[nH]2)c1,-51.7,-24.7,-58,-47.2,-27.4
CC1OC1P(=O)(O)O (stereo not given),-9.75,-0.403,-2.85,-10.9,1.56
CC1(C(=O)NC2CCCCC2)Cn2c(ccc2-c2ccco2)C(=O)N1Cc1ccccc1Cl (stereo not given),-9.62,-9.47,4.23,-13.2,-8.57
O=C(NCc1cc(F)ccc1F)[C@@H]1CNC[C@H]1COc1cccnc1,-1.21,-1.23,0.96,-2.56,-10.1
COc1ccc(-n2nc(C(N)=O)c3c2C(=O)N(c2ccc(N4CCCCC4=O)cc2)CC3)cc1,-5.57,-2.31,6.78,-17.1,-0.402
O=S(=O)(NCCn1c(CCc2ccccc2)nc2ccccc21)c1ccccc1Cl,-2.99,2.84,-1.64,-4.71,-0.116
COc1ccc2cc3n(c2c1)CC(C)(C(=O)NC1CCCCCC1)N(CCN1CCOCC1)C3=O (stereo not given),-3.84,1.72,0.714,-4.63,0.1
CCc1ccc(N2C(=O)CSc3c(c4ccccc4n3C)C2C(=O)NCCC(C)C)cc1 (stereo not given),5.59,0,-1.05,1.25,4.54
CN(C)Cc1cn(C[C@H]2C[C@@H](NS(=O)(=O)c3ccccc3)[C@H](O)[C@@H]2O)nn1,-2.25,-6.68,-24.2,-18.1,-4.38
